# Laboratory results: patent publication US20050004163A1, “3-(diarylmethylene)-8-azabicyclo[3.2.1]octane derivatives” (priority 2000, published 2005)
# Target: T1, δ-opioid receptor (Rattus norvegicus, UniProt P33533)
# T1 construct: the forebrains are homogenized in Tris buffer in a Teflon®-glass homogenizer; from tissue; host or cells: forebrain of male Wistar rats (particulate membrane preparation)
# Conditions: DOR binding Ki, rat brain δ opioid receptor binding; 10 nM solutions of the compounds
# T1 sequence (P33533 whole entry): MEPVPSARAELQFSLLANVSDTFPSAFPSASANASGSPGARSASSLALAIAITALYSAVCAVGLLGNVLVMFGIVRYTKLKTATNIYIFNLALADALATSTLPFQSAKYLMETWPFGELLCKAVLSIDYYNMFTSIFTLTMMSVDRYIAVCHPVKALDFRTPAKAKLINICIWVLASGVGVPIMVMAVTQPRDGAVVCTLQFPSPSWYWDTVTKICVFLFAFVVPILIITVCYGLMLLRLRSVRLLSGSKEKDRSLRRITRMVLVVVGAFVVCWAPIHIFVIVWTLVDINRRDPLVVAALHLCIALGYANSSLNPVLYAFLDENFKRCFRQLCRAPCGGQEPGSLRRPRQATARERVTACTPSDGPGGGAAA
row,Compound,Ki [nM]
1,CCNC(=O)c1ccc(C(=C2CC3CCC(C2)N3CC=C(C)C)c2cccc3cccnc23)cc1 [Cpd 67],77.2
2,CCNC(=O)c1ccc(C(=C2CC3CCC(C2)N3Cc2cccs2)c2cccc3cccnc23)cc1 [Cpd 68],34.4
3,CCNC(=O)c1ccc(C(=C2CC3CCC(C2)N3Cc2ccc3c(c2)OCO3)c2cccc3cccnc23)cc1 [Cpd 69],77.5
4,CCNC(=O)c1ccc(C(=C2CC3CCC(C2)N3Cc2ccccn2)c2cccc3cccnc23)cc1 [Cpd 70],22.3
5,CCNC(=O)c1ccc(C(=C2CC3CCC(C2)N3Cc2ccc3ccccc3n2)c2cccnc2)cc1 [Cpd 71],5.14
6,CCNC(=O)c1ccc(C(=C2CC3CCC(C2)N3Cc2ccc3ccccc3n2)c2cccc(NC(C)=O)c2)cc1 [Cpd 72],6.83
7,CCNC(=O)c1ccc(C(=C2CC3CCC(C2)N3Cc2ccc3ccccc3n2)c2cccc(C(C)=O)c2)cc1 [Cpd 73],6.54
8,CCNC(=O)c1ccc(C(=C2CC3CCC(C2)N3Cc2csc([N+](=O)[O-])c2)c2cccnc2)cc1 [Cpd 74],10.6
9,CCNC(=O)c1ccc(C(=C2CC3CCC(C2)N3Cc2csc([N+](=O)[O-])c2)c2cccc(C(C)=O)c2)cc1 [Cpd 76],35.3
10,"CCNC(=O)c1ccc(C(=C2CC3CCC(C2)N3Cc2ccco2)c2cccc(C(=O)O)c2)cc1 [Cpd 80, 3-[(4-Ethylcarbamoyl-phenyl)-(8-furan-2-ylmethyl-8-aza-bicyclo[3.2.1]oct-3-ylidene)-methyl]-benzoic acid]",4.06
11,CCNC(=O)c1ccc(C(=C2CC3CCC(C2)N3Cc2ccoc2)c2cccc(C(=O)O)c2)cc1 [Cpd 81],3.5
12,CCNC(=O)c1ccc(C(=C2CC3CCC(C2)N3Cc2ccccn2)c2cccc(C(=O)O)c2)cc1 [Cpd 82],4.36
13,CCNC(=O)c1ccc(C(=C2CC3CCC(C2)N3CCc2ccccc2)c2cccc(C(=O)O)c2)cc1 [Cpd 83],625
14,CCNC(=O)c1ccc(C(=C2CC3CCC(C2)N3Cc2ccc(NC(C)=O)cc2)c2cccc(C(=O)O)c2)cc1 [Cpd 84],325
15,CCNC(=O)c1ccc(C(=C2CC3CCC(C2)N3Cc2ccc3ccccc3n2)c2cccc(C(=O)O)c2)cc1 [Cpd 85],2.47
16,"CCNC(=O)c1ccc(C(=C2CC3CCC(C2)N3CC(=O)c2cc(C(=O)c3ccc(Cl)cc3)cn2C)c2ccccc2)cc1 [Cpd 88, 4-[(8{2-[4-(4-Chloro-benzoyl)-1-methyl-1H-pyrrol-2-yl]-2-oxo-ethyl}-8-azabicyclo[3.2.1]oct-3-ylidene)-phenyl-methyl]-N-ethyl-benzamide]",36.4
17,"CCN(CC)C(=O)c1ccc(C(Br)=C2CC3CCC(C2)N3CCc2ccccc2)cc1 [Cpd 89, 4-[Bromo-(8-phenethyl-8-azabicyclo[3.2.1]oct-3-ylidene)-methyl]-N,N-diethylbenzamide]",311
18,"CCNC(=O)c1ccc(C(=C2CC3CCC(C2)N3Cc2nnn[nH]2)c2ccccc2)cc1 [Cpd 90, N-Ethyl-4-{phenyl-[8-(1H-tetrazol-5-ylmethyl)-8-aza-bicyclo[3.2.1]oct-3-ylidene]-methyl}-benzamide]",102
19,"CCNC(=O)c1ccc(C(=C2CC3CCC(C2)N3CCN2CCN(C(=O)OC)CC2)c2ccccc2)cc1 [Cpd 91, 4-(2-{3-[(4-Ethylcarbamoylphenyl)-phenylmethylene]-8-azabicyclo[3.2.1]oct-8-yl}-ethyl)piperazine-1-carboxylic acid methyl ester]",212

row,Compound,Ki [nM]
1,CCNC(=O)c1ccc(C(=C2CC3CCC(C2)N3Cc2cccc(C(=O)O)c2)c2ccccc2)cc1 [Cpd 93],480
2,CCNC(=O)c1ccc(C(=C2CC3CCC(C2)N3Cc2ccc(C(=O)O)cc2)c2ccccc2)cc1 [Cpd 94],480
3,CCNC(=O)c1ccc(C(=C2CC3CCC(C2)N3Cc2ccoc2)c2ccc(C(=O)O)cc2)cc1 [Cpd 97],5.33
4,CCNC(=O)c1ccc(C(=C2CC3CCC(C2)N3Cc2ccccn2)c2ccc(C(=O)O)cc2)cc1 [Cpd 98],6
5,CCNC(=O)c1ccc(C(=C2CC3CCC(C2)N3CCc2ccccc2)c2ccc(C(=O)O)cc2)cc1 [Cpd 99],4.82
6,CCNC(=O)c1ccc(C(=C2CC3CCC(C2)N3Cc2ccc3ccccc3n2)c2ccc(C(=O)O)cc2)cc1 [Cpd 100],3.65
7,CCNC(=O)c1ccc(C(=C2CC3CCC(C2)N3Cc2ccc3ccccc3n2)c2cncnc2)cc1 [Cpd 101],13.6
8,CCNC(=O)c1ccc(C(=C2CC3CCC(C2)N3Cc2nccs2)c2cccc(C(=O)O)c2)cc1 [Cpd 102],5.65
9,"CNC(=O)c1ccc(C=C2CC3CCC(C2)N3)cc1 [Cpd 103, 4-(8-Aza-bicyclo[3.2.1]oct-3-ylidenemethyl)-N-methyl-benzamide]",5850
10,CNC(=O)c1ccc(C=C2CC3CCC(C2)N3CC2CC2)cc1 [Cpd 105],4520
11,"CCNC(=O)c1ccc(C=C2CC3CCC(C2)N3CCC(C#N)(c2ccccc2)c2ccccc2)cc1 [Cpd 106, 4-[8-(3-Cyano-3,3-diphenylpropyl)-8-aza-bicyclo[3.2.1]oct-3-ylidenemethyl]-N-ethyl-benzamide]",6560
12,"CCNC(=O)c1ccc(C=C2CC3CCC(C2)N3CCC(C(=O)N(C)C)(c2ccccc2)c2ccccc2)cc1 [Cpd 107, 4-[8-(3-Dimethylcarbamoyl-3,3-diphenyl-propyl)-8-aza-bicyclo[3.2.1]oct-3-ylidenemethyl]-N-ethyl-benzamide]",1570
13,CCNC(=O)c1ccc(C(=C2CC3CCC(C2)N3Cc2ccco2)c2cc(N)cc(C(=O)O)c2)cc1 [Cpd 108],105
14,CCNC(=O)c1ccc(C(=C2CC3CCC(C2)N3Cc2ccoc2)c2cc(N)cc(C(=O)O)c2)cc1 [Cpd 110],56.3
15,CCNC(=O)c1ccc(C(=C2CC3CCC(C2)N3Cc2ccccn2)c2cc(N)cc(C(=O)O)c2)cc1 [Cpd 112],1440
16,"CCNC(=O)c1ccc(/C(=C2\C[C@H]3CC[C@@H](C2)N3Cc2ccccn2)c2ccc(C(=O)N(C)C)cc2)cc1 [Cpd 113, N-Ethyl-4-[N′,N′-dimethylbenzamide-(8-pyridin-2-ylmethyl-8-aza-bicyclo[3.2.1]oct-3-ylidene)-methyl]-benzamide]",1.33
17,CCNC(=O)c1ccc(C(=C2CC3CCC(C2)N3CC=C(C)C)c2cc(N)cc(C(=O)O)c2)cc1 [Cpd 114],56.4
18,CCNC(=O)c1ccc(C(=C2CC3CCC(C2)N3CCc2ccccc2)c2cc(N)cc(C(=O)O)c2)cc1 [Cpd 116],50.6
19,CCNC(=O)c1ccc(C(=C2CC3CCC(C2)N3Cc2nccs2)c2cc(N)cc(C(=O)O)c2)cc1 [Cpd 118],57.4

row,Compound,Ki [nM]
1,CCNC(=O)c1ccc(C(=C2CC3CCC(C2)N3Cc2cccs2)c2cc(N)cc(C(=O)O)c2)cc1 [Cpd 120],2.2
2,CCNC(=O)c1ccc(C(=C2CC3CCC(C2)N3Cc2ccco2)c2ccc(CC(N)C(=O)O)cc2)cc1 (stereo not drawn) [Cpd 124],9.29
3,CCNC(=O)c1ccc(C(=C2CC3CCC(C2)N3Cc2ccco2)c2ccc(CCC(=O)O)cc2)cc1 [Cpd 125],1.44
4,CCNC(=O)c1ccc(C(=C2CC3CCC(C2)N3Cc2ccoc2)c2ccc(CCC(=O)O)cc2)cc1 [Cpd 127],0.78
5,CCNC(=O)c1ccc(C(=C2CC3CCC(C2)N3Cc2ccsc2)c2ccc([N+](=O)[O-])cc2)cc1 [Cpd 128],0.28
6,CCNC(=O)c1ccc(C(=C2CC3CCC(C2)N3Cc2ccsc2)c2ccc(CCC(=O)O)cc2)cc1 [Cpd 129],0.34
7,CCNC(=O)c1ccc(C(=C2CC3CCC(C2)N3Cc2nccs2)c2ccc([N+](=O)[O-])cc2)cc1 [Cpd 130],11.3
8,CCNC(=O)c1ccc(C(=C2CC3CCC(C2)N3Cc2nccs2)c2ccc(CC(N)C(=O)O)cc2)cc1 (stereo not drawn) [Cpd 131],11.2
9,CCNC(=O)c1ccc(C(=C2CC3CCC(C2)N3Cc2nccs2)c2ccc(CCC(=O)O)cc2)cc1 [Cpd 132],0.93
10,CCNC(=O)c1ccc(C=C2CC3CCC(C2)N3Cc2nccs2)cc1 [Cpd 133],142
11,CCNC(=O)c1ccc(C(=C2CC3CCC(C2)N3CCc2ccccc2)c2ccc([N+](=O)[O-])cc2)cc1 [Cpd 134],10.5
12,CCNC(=O)c1ccc(C(=C2CC3CCC(C2)N3CC=C(C)C)c2ccc([N+](=O)[O-])cc2)cc1 [Cpd 136],0.2
13,CCNC(=O)c1ccc(C(=C2CC3CCC(C2)N3CC=C(C)C)c2ccc(CCC(=O)O)cc2)cc1 [Cpd 137],1.52
14,CCNC(=O)c1ccc(C(=C2CC3CCC(C2)N3Cc2ccoc2)c2ccc(S(N)(=O)=O)cc2)cc1 [Cpd 138],15.9
15,CCNC(=O)c1ccc(C(=C2CC3CCC(C2)N3Cc2ccsc2)c2ccc(S(N)(=O)=O)cc2)cc1 [Cpd 139],0.33
16,CCNC(=O)c1ccc(C(=C2CC3CCC(C2)N3Cc2nccs2)c2ccc(S(N)(=O)=O)cc2)cc1 [Cpd 140],9.38
17,CCNC(=O)c1ccc(C(=C2CC3CCC(C2)N3Cc2cccs2)c2ccc(S(N)(=O)=O)cc2)cc1 [Cpd 141],0.05
18,CCNC(=O)c1ccc(C(=C2CC3CCC(C2)N3CC=C(C)C)c2ccc(S(N)(=O)=O)cc2)cc1 [Cpd 142],1.2
19,CCNC(=O)c1ccc(C(C#N)=C2CC3CCC(C2)N3Cc2ccoc2)cc1 [Cpd 143],0.3

# Same assay, conditions: rat brain δ opioid receptor binding; 10 nM solutions of the compounds; read-out: DOR binding Ki
row,Compound,Ki [nM]
1,CCNC(=O)c1ccc(C=C2CC3CCC(C2)N3Cc2ccc(Cl)s2)cc1 [Cpd 77],2050
2,CCNC(=O)c1ccc(C=C2CC3CCC(C2)N3Cc2sc3ccccc3c2C)cc1 [Cpd 78],5600
3,CCNC(=O)c1ccc(C=C2CC3CCC(C2)N3CCc2ccccc2O)cc1 [Cpd 86],504
4,CCNC(=O)c1ccc(C(=C2CC3CCC(C2)N3Cc2ccc(C(=O)O)o2)c2cccc(C(=O)O)c2)cc1 [Cpd 87],254
5,CCNC(=O)c1ccc(C(=C2CC3CCC(C2)N3Cc2ccc(C(=O)O)o2)c2ccccc2)cc1 [Cpd 95],144
6,CCNC(=O)c1ccc(C(=C2CC3CCC(C2)N3Cc2ccco2)c2ccc(C(=O)O)cc2)cc1 [Cpd 96],6.62
7,CCNC(=O)c1ccc(C(=C2CC3CCC(C2)N3Cc2ccco2)c2ccc([N+](=O)[O-])cc2)cc1 [Cpd 123],0.64
8,CCNC(=O)c1ccc(C(=C2CC3CCC(C2)N3Cc2ccoc2)c2ccc([N+](=O)[O-])cc2)cc1 [Cpd 126],0.23
9,CCNC(=O)c1ccc(C(=C2CC3CCC(C2)N3CCc2ccccc2)c2ccc(CCC(=O)O)cc2)cc1 [Cpd 135],1
